The other results are listed elsewhere or left out. Viral Rep nickase domains cut single-stranded DNA in vitro (1 h at 37 °C, 3 µM enzyme); the outer parts of the 90-letter strands are left off. The score is log2 (uncut reads / reads without enzyme); more negative means more cut, near 0 not cut, and no call is made. The scaling is to total reads, so uncut sequences can rise above 0 when many others are cut.
How the values were obtained:
Assay in all cases: uncleaved DNA left, log2 of reads against the no-enzyme library (log2 ratio); higher = less cleavage (more negative = more Rep cleavage of the k-mer); sequences stand for … in CTCGTCCG…ACCGGAGA
[1] = test system: T1, Rep nickase domain of Muscovy duck circovirus
T1 sequence (Rep 1-111, printed without the tag): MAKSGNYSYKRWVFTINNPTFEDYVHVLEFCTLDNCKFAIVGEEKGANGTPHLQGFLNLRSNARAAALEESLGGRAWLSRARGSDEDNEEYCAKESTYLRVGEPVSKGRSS
Experimental: (§1)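 A pool of 90-nt single-stranded DNAs with seven random bases just before the constant AC of the nick site (name = the seven bases) was cut by 3 µM recombinant His6-SUMO-tagged Rep nickase domain (300 nM DNA, 50 mM HEPES pH 8.0, 50 mM NaCl, 1 mM MnCl2, 1 h, 37 °C, three replicates). Uncut DNA was amplified and sequenced.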

[2] = test system: T2, Rep nickase domain of banana bunchy top virus
T2 sequence (Rep 1-94, printed without the tag): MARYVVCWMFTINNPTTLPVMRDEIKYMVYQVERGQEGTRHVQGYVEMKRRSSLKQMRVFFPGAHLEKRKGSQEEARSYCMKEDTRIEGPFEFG
Experimental: as §1

[3] = test system: T3, Rep nickase domain of cabbage leaf curl virus
T3 sequence (Rep 1-116, printed without the tag): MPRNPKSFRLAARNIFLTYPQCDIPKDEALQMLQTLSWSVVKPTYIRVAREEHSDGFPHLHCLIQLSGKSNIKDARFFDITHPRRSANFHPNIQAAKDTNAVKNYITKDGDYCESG
Experimental: as §1

[4] = test system: T4, Rep nickase domain of chickpea chlorotic dwarf virus
T4 sequence (Rep 1-124, printed without the tag): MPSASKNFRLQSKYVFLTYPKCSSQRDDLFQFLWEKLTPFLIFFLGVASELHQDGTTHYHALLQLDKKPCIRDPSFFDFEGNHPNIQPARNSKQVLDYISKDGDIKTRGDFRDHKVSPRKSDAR
Experimental: as §1

[5] = test system: T5, Rep nickase domain of faba bean necrotic yellows virus
T5 sequence (Rep 1-98, printed without the tag): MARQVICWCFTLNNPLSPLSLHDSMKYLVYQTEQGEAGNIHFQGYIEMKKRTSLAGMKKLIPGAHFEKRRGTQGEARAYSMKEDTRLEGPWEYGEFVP
Experimental: as §1

[6] = test system: T6, Rep nickase domain of maize striate mosaic virus
T6 sequence (Rep 1-117, printed without the tag): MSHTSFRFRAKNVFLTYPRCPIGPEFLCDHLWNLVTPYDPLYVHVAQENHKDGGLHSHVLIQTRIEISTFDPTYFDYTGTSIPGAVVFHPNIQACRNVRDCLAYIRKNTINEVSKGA
Experimental: as §1

[7] = test system: T7, Rep nickase domain of porcine circovirus 2
T7 sequence (Rep 2-116, printed without the tag): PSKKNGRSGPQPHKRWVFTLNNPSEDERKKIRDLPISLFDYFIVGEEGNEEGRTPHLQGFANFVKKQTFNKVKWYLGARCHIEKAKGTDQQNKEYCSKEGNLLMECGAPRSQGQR
Experimental: as §1

[8] = test system: T8, Rep nickase domain of tomato yellow leaf curl virus
T8 sequence (Rep 1-136, printed without the tag): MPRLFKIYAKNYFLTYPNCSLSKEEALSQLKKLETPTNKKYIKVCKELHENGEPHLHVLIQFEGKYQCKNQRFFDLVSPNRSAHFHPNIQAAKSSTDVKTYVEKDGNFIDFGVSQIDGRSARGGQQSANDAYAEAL
Experimental: as §1

[9] = test system: T9, Rep nickase domain of wheat dwarf virus
T9 sequence (Rep 1-137, printed without the tag): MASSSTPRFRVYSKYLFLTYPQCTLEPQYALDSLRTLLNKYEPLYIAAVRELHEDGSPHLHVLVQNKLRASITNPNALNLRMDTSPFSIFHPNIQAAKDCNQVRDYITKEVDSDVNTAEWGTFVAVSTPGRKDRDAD
Experimental: as §1

Row | Sequence | uncleaved DNA left (log2) [1] | uncleaved DNA left (log2) [2] | uncleaved DNA left (log2) [3] | uncleaved DNA left (log2) [4] | uncleaved DNA left (log2) [5] | uncleaved DNA left (log2) [6] | uncleaved DNA left (log2) [7] | uncleaved DNA left (log2) [8] | uncleaved DNA left (log2) [9]
1 | ATGGTGC | 0.0162 | -0.0704 | -0.546 | -0.457 | -0.101 | -0.869 | 0.117 | 0.0172 | -0.0796
2 | AGTTGGA | 0.0149 | 0.0103 | -0.105 | -0.076 | -0.0337 | -0.68 | -0.192 | -0.0172 | -0.183
3 | CAGTGCG | -0.0452 | -0.13 | -0.0423 | 1.36 | 0.165 | 1.35 | 0.0607 | 0.0674 | -0.2
4 | AACTGTA | -0.28 | -0.0909 | -0.128 | -0.364 | 0.0167 | 0.604 | -2.76 | -0.0518 | 0.154
5 | CGTGATT | -0.0128 | -0.00101 | 0.126 | -1.32 | 0.0218 | 0.0967 | -1.78 | 0.00133 | 0.0281
6 | AATCTAT | 0.0484 | 0.032 | 0.136 | -1.29 | 0.0535 | -0.163 | -0.707 | 0.106 | 0.227
7 | GGAGGGC | 0.158 | 0.23 | 0.845 | 1.58 | 0.0566 | 1.81 | 0.304 | -0.0211 | 0.187
8 | GTGATTA | -0.008 | -0.0156 | 0.288 | 0.843 | 0.0372 | 1.82 | 0.0446 | -0.0188 | 0.117
9 | AGTAAAA | 0.0932 | -0.012 | 0.175 | 0.383 | 0.1 | -0.169 | -0.361 | 0.101 | 0.0672
10 | AATATTG | 0.106 | -0.0549 | -0.277 | -0.468 | 0.0806 | -0.889 | 0.156 | 0.0422 | 0.0337
11 | TTAGGCC | 0.121 | 0.0283 | 0.238 | 0.565 | -0.167 | 0.499 | -0.156 | -0.0786 | 0.0106
12 | GTAGAGT | 0.12 | 0.0878 | 0.27 | 0.77 | 0.00875 | 1.17 | 0.086 | 0.113 | 0.137
13 | TTCCGTA | 0.0828 | 0.0582 | 0.293 | -0.158 | -0.0233 | -0.0437 | -0.0264 | -0.0138 | 0.125
14 | CGATACT | -3.3 | -0.143 | -0.4 | -2.79 | 0.0229 | -0.468 | -3.27 | -0.0355 | -0.247
15 | AGCCGGT | 0.0855 | 0.0178 | 0.172 | 0.465 | 0.0688 | 0.926 | -0.0875 | -0.0404 | -0.0105
16 | TCGCTAG | 0.0122 | 0.0479 | -0.113 | -0.155 | -0.00874 | -0.762 | 0.139 | 0.133 | 0.146
17 | GCTGAGC | -0.0381 | 0.0822 | 0.19 | 0.41 | 0.0183 | 0.506 | 0.216 | -0.0166 | 0.18
18 | CGAGTGC | -0.0606 | 0.0353 | -0.0357 | 0.528 | -0.0458 | 0.818 | 0.136 | -0.0649 | 0.076
19 | TCTATGC | 0.204 | 0.219 | -0.404 | -0.49 | 0.0427 | -1 | 0.363 | 0.145 | 0.114
20 | AGGATCG | 0.145 | -0.145 | -0.777 | -0.636 | -0.0165 | -0.945 | 0.123 | 0.0822 | -0.0805
21 | ACCTCTG | -0.144 | -0.0943 | -0.51 | -0.246 | -0.0964 | -0.689 | 0.00834 | 0.0536 | -0.142
22 | ACTCGCA | -0.0953 | 0.0342 | -0.535 | -0.956 | 0.0444 | -1.11 | -0.0101 | 0.0438 | -0.0689
23 | CATAGAA | -0.00636 | -0.0754 | -0.0323 | -0.258 | -0.0679 | -0.95 | 0.0858 | -0.0723 | -0.12
24 | CGCCCCT | -0.197 | -0.215 | -0.176 | -1.36 | -0.22 | -0.137 | -0.579 | -0.109 | -0.186
25 | TTACTTT | 0.0476 | -0.0262 | -0.0908 | -2.68 | 0.104 | -0.352 | -0.266 | 0.136 | -0.0471
26 | GGGAGTC | 0.0517 | 0.0387 | 0.834 | 1.87 | 0.00593 | 2.18 | 0.181 | 0.0184 | 0.0142
27 | CGCGCGT | -0.0659 | -0.0845 | -0.77 | -0.619 | -0.045 | -0.593 | -0.00653 | -0.0686 | -0.153
28 | GAGTTGA | 0.0516 | -0.0471 | 0.102 | 0.464 | -0.0961 | 0.338 | -1.87 | 0.054 | 0.0253
29 | AACTTAT | -2.41 | -0.923 | -0.398 | -1.9 | -0.0563 | -0.571 | -4.13 | -0.162 | -0.0904
30 | TAAACTT | -1.36 | -0.798 | -4.41 | -3.38 | -0.0603 | -2.8 | -3.84 | -0.182 | -3.62
